Measurements as given in PubChem BioAssay AID652104 (National Center for Advancing Translational Sciences (NCATS), 2013).
Out of some 410,000 compounds screened, about 7,200 (1.8%) were called active. The shares of active, inactive and inconclusive entries below differ from those in the screen. The call rests on the fitted dose curve; in most records, active means well fitted activation curve with a large enough effect; inconclusive means small, poorly fitted or top-dose-only effect, or another doubt; inactive means no such curve, though single readings can be large or run the other way. No potency is given beside an inconclusive call; the fits are too rough.

Assay: qHTS of TDP-43 Inhibitors; further: nearly all actives have a fitted effect of over 50% in size
Conditions: TDP-43 expressing yeast growth rescue, BacTiter-Glo, 24 h; series mostly up to 46.1 µM
Method in brief: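 Galactose-induced TDP-43 yeast, OD600=0.02, compound pinned; 24 hr, 30 deg C; BacTiter-Glo luminescence for growth. Inhibitors of TDP-43 toxicity read as activators.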
Potency means the concentration at half of the fitted maximal effect; tags describe the fitted curve by direction and shape.

Compound	Potency
COC(=O)c1c(NC(=O)CCCOc2ccc(C(C)(C)C)cc2)sc2c1C(C(=O)OC)CC2 (stereo not drawn)	inactive
Cc1ccc(CN=c2c([N+](=O)[O-])nn(-c3ccc4c(c3)OCCO4)n2O)cc1	inconclusive [activator, full curve, poor fit]
CCOC(=O)N1CCN(c2ccccc2OC)CC1	inconclusive [activator, partial curve]
Cc1cc(NC(=O)c2cccs2)ncc1NC(=O)c1cccc(F)c1	inconclusive [activator, partial curve]
CC1CC=C2C(C#N)=C(N)C(C#N)(C#N)C(c3cccs3)C2C1 (stereo not drawn)	inactive
Cc1ccc2c(=O)n3c(nc2c1)C(Cc1ccc(O)cc1)NC(=O)c1cc2ccccc2cc1-3 (stereo not drawn)	inconclusive [activator, full curve, poor fit]
CC1(C(=O)NCc2cccs2)Cc2c(-c3cccc(C(F)(F)F)c3)ccnc2O1 (stereo not drawn)	inconclusive [activator, full curve]
O=C(CSc1nnc(Cc2cccs2)n1Cc1ccco1)Nc1ccc(Cl)cc1Cl	inconclusive [activator, partial curve]
CCn1ccc2cc(OC)ccc2c1=S	inconclusive [activator, single point]
Cc1nn(C)c2c1c(C(F)(F)F)cc(=O)n2C(C)C(=O)NCCc1ccc(Cl)cc1 (stereo not drawn)	inactive
c1coc(-c2cc3nc(NCc4ccc5c(c4)OCO5)ccn3n2)c1	active: 17.8 µM
CCc1ccccc1NC(=O)CSc1ncccc1C(=O)O	inconclusive [activator, partial curve]
Cc1nn(-c2ccccc2)c(C)c1-c1ccccc1O	inconclusive [activator, single point]
Cc1c(CCC(=O)O)c(=O)oc2cc3occ(-c4ccc(F)cc4)c3cc12	inconclusive [activator, partial curve]
COc1ccc2c(=O)c(-c3ccc(OC)c(OC)c3)coc2c1	inconclusive [activator, partial curve, poor fit]
O=C(Nc1ccc(F)cc1Cl)C1CCN(c2ncnc3c2nc2n3CCCCC2)CC1	inconclusive [activator, full curve, poor fit]
CCNC(=O)COC(=O)c1csc2c1CCCC2	inconclusive [activator, partial curve]
Cc1cn([C@H]2C[C@H](O)[C@@H](CCC(=O)NCCCc3ccccc3)O2)c(=O)[nH]c1=O	inconclusive [activator, full curve, poor fit]
